Data as given in the supplement of paper PMC4723716.
± gives the uncertainty stated by the source. In all, about 9,900 compounds were measured (“viability index relative to DMSO control”: median about 1, lowest 2% from about 0.85 on). This is one part of the list.

Test system: Plasmodium falciparum NF54 stage V gametocytes
Test: viability index relative to DMSO control (fraction); higher = less gametocyte killing
Details: 2.5 µM, incubation time: 72 h
Procedure, shortened: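 In 1,536-well plates, 10 µl of serum-free medium holding P. falciparum NF54 stage V gametocytes (0.75% gametocytemia, 1.25% hematocrit) received compound at 2.5 µM for 72 hr at 37°C in low oxygen. After one to two hours with 3 µl of 2.5 µM MitoTracker Red CMXRos containing 0.13% saponin, red particles of 20–70 µm2 were counted in a single field per well. Viability index is reported as the particle count over the plate mean of wells treated with solvent only.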

[1] = library set: Broad Institute DOS

Structure (SMILES)	viability index [1]	viability index (library set: Broad Institute Blood Stage)
COc1ccc(S(=O)(=O)Nc2ccc3c(c2)C(=O)N([C@@H](C)CO)C[C@@H](C)[C@H](CN(C)S(=O)(=O)c2ccc(Cl)cc2)OCCCC[C@@H](C)O3)cc1	1.062 ± 0.0066	
C[C@H]1CN([C@@H](C)CO)C(=O)c2cccc(N(C)C)c2O[C@@H]1CN(C)Cc1ccncc1	1.03 ± 0.057	
C/C=C/c1ccc([C@H]2[C@@H](CO)N(C(=O)C3CC3)[C@@H]2CNC(=O)NC(C)C)cc1	1.04 ± 0.06	
C[C@@H]1CN([C@@H](C)CO)C(=O)CCCn2cc(nn2)CO[C@@H]1CN(C)Cc1ccccc1	0.972 ± 0.023	
Cc1noc(C)c1NC(=O)N(C)C[C@H]1Oc2cc(C#CCN(C)C)ccc2S(=O)(=O)N([C@H](C)CO)C[C@@H]1C	1.049 ± 0.004	
O=C(C[C@@H]1CC[C@@H]2[C@H](COC[C@@H](O)CN2C(=O)Nc2ccc(Cl)cc2)O1)NCC1CCCCC1	0.989 ± 0.062	
C[C@@H]1CCCCO[C@H](CN(C)Cc2ccc(C(=O)O)cc2)[C@H](C)CN([C@H](C)CO)C(=O)c2cc(N(C)C)ccc2O1	1.09 ± 0.014	
O=C(C1CCCCC1)N1[C@H](CO)[C@@H]2c3ccccc3NC[C@@H]21	1.06 ± 0.043	
COc1ccccc1-c1ccc([C@H]2[C@@H](CO)N(C(=O)NC3CCCCC3)[C@H]2C#N)cc1	1.07 ± 0.018	
CNC[C@H]1OCCCC[C@@H](C)Oc2ccc(N)cc2C(=O)N([C@@H](C)CO)C[C@@H]1C	1.15 ± 0.071	
C[C@H]1CN([C@@H](C)CO)S(=O)(=O)c2ccc(C#CCC3CCCC3)cc2O[C@H]1CN(C)C(=O)c1cnccn1	0.864 ± 0.039	
COc1ccc2c3c([nH]c2c1)[C@@H](CO)N(Cc1nccs1)C[C@]31CCN(CC1)C(=O)C1CCCCC1	1.04 ± 0.14	
C[C@@H]1CN([C@H](C)CO)C(=O)CCCn2nncc2CO[C@@H]1CN(C)Cc1ccc2c(c1)OCCN2C	1.06 ± 0.039	
Cc1ccc(CN2CC(=O)N3[C@H](CO)[C@@H](c4ccc(-c5ccccc5F)cc4)[C@@H]3C2)cc1	0.979 ± 0.025	
Cc1cccc(-c2ccc([C@H]3[C@H]4CN(C(=O)c5ccc6c(c5)OCO6)CC(=O)N4[C@H]3CO)cc2)c1	1.05 ± 0.016	
C[C@@H]1CN([C@@H](C)CO)C(=O)Cc2cc(NC(=O)CCC(F)(F)F)ccc2O[C@H]1CN(C)CC1CC1	0.959 ± 0.12	
O=C(N[C@@H]1C=C[C@@H](CC(=O)N2CCN(c3ccccc3)CC2)O[C@@H]1CO)c1ccccc1	1.11 ± 0.12	
C[C@H](CO)N1C[C@H](C)[C@H](CN(C)C(=O)Nc2ccccc2C(F)(F)F)OCc2ccccc2-c2c(n(C)c3ccccc23)C1=O	0.893 ± 0.091	
CN1C(=O)c2cc(NC(=O)C3CCOCC3)ccc2OC[C@H]2O[C@H](CC(=O)NCc3ccccc3F)CC[C@H]21	0.983 ± 0.065	
COc1cccc(S(=O)(=O)N(C)C[C@@H]2Oc3ncc(C#Cc4ccc(OC)c(OC)c4)cc3C(=O)N([C@H](C)CO)C[C@@H]2C)c1		1.01 ± 0.04
CO[C@H]1CN(C)C(=O)c2ccc(NC(=O)C3CC3)cc2OC[C@@H](C)N(C(C)=O)C[C@@H]1C	1.06 ± 0.043	
CCCN1CC[C@@]2(CC1)CN(Cc1ccc3OCOc3c1)[C@H](CO)c1[nH]c3cc(OC)ccc3c21	0.993 ± 0.088	
C/C=C/c1ccccc1[C@H]1[C@@H](CO)N(C(=O)Nc2cccc(F)c2)[C@H]1C#N	1.0857 ± 0.00036	
Cc1noc(C)c1NC(=O)Nc1ccc2c(c1)C(=O)N([C@@H](C)CO)C[C@H](C)[C@@H](CN(C)S(=O)(=O)c1cccs1)OCCCC[C@H](C)O2	1.09 ± 0.0097	

Structure (SMILES)	viability index [1]	viability index (library set: Broad Institute Blood Stage)
CNC[C@@H]1OCc2cnnn2CCCC(=O)N([C@H](C)CO)C[C@@H]1C	1.05 ± 0.061	
O=S(=O)(c1ccc(F)cc1)N1C[C@@H]2[C@H](c3ccccc31)[C@H](CO)N2Cc1ccccc1Cl	1.06 ± 0.1	
CO[C@@H]1CN(C)C(=O)c2ccc(NC(=O)C3CC3)cc2OC[C@H](C)N(C(C)=O)C[C@@H]1C	1.139 ± 0.008	
CN1C(=O)c2cc(NS(C)(=O)=O)ccc2OC[C@H]2O[C@H](CC(=O)N3CCOCC3)CC[C@@H]21	1.11 ± 0.044	
COC(=O)[C@H]1[C@H](CO)[C@H]2Cn3c(ccc(C4=CCCCC4)c3=O)[C@H]2N1C(=O)c1ccccc1F	1.02 ± 0.024	
CO[C@@H]1CN(C)C(=O)c2ccc(NC(C)=O)cc2OC[C@@H](C)N(C(=O)c2cnccn2)C[C@@H]1C	1.1 ± 0.04	
N#Cc1ccc(-c2ccc([C@@H]3[C@@H]4CN(C(=O)c5cccnc5)C[C@H]3N4)cc2)cc1	0.81 ± 0.2	
C/C=C/c1ccccc1[C@@H]1[C@@H](C#N)N(C(=O)c2cccnc2)[C@H]1CO	1.11 ± 0.017	
C[C@H](O)C#Cc1ccc([C@H]2[C@H]3CN(CC4CC4)CCCCN3[C@H]2CO)cc1	1.05 ± 0.039	
O=S(=O)(c1ccccc1)N1CCCCN2[C@H](CO)[C@H](c3ccc(C#CC4CCCC4)cc3)[C@@H]2C1	1.02 ± 0.016	
C[C@@H]1CN([C@H](C)CO)C(=O)c2c(c3ccccc3n2C)-c2ccccc2CO[C@@H]1CN(C)C(=O)Nc1ccccc1C(F)(F)F	1.022 ± 0.0024	
C[C@@H]1CN([C@H](C)CO)C(=O)c2cc(N(C)C)ccc2O[C@H]1CN(C)CC1CCCCC1	1.04 ± 0.087	
O=S(=O)(NC[C@@H]1[C@H](c2ccccc2)[C@@H](CO)N1CC1CC1)c1ccccc1	1.041 ± 0.006	
Cc1ccc(S(=O)(=O)Nc2ccc3c(c2)C(=O)N([C@H](C)CO)C[C@H](C)[C@H](CN(C)Cc2ccc(C(F)(F)F)cc2)O3)cc1	1.06 ± 0.04	
CCc1nc(N2[C@@H](C#N)[C@@H](c3ccccc3-c3ccccc3C)[C@@H]2CO)sc1C	1.08 ± 0.12	
COc1ccc2c3c([C@@H](CO)N(C[C@]33CN(CC4CCOCC4)C3)C(=O)c3ccc(F)cc3)n(C)c2c1	0.969 ± 0.075	
O=C(c1cccc(F)c1)N1CC(=O)N2[C@@H](CO)[C@H](c3ccc(/C=C/c4ccccc4)cc3)[C@@H]2C1	1.08 ± 0.022	
O=C(N[C@@H]1C=C[C@H](CC(=O)N2CCN(c3ccccc3)CC2)O[C@@H]1CO)c1ccccc1	1.17 ± 0.04	
CCC(=O)NC[C@H]1[C@@H](c2ccc(-c3ccc(C#N)cc3)cc2)[C@@H](CO)N1CCC(F)(F)F	1.01 ± 0.028	
O=C(C[C@H]1C=C[C@@H](NC(=O)C2CCC2)[C@@H](CO)O1)NC1CCCCC1	1.09 ± 0.049	
C/C=C/c1ccc2n(c1=O)C[C@H]1[C@H](CO)[C@@H](C(=O)N3CCOCC3)[C@@H]2N1CC1CCCC1.C/C=C\c1ccc2n(c1=O)C[C@H]1[C@H](CO)[C@@H](C(=O)N3CCOCC3)[C@@H]2N1CC1CCCC1	1.12 ± 0.042	
Cc1cccc(S(=O)(=O)N2C[C@H](O)COC[C@@H]3O[C@H](CC(=O)Nc4ccccc4)CC[C@H]32)c1	1.13 ± 0.027	
C[C@@H]1CN([C@@H](C)CO)C(=O)c2cc(NC(=O)Cn3cnnn3)ccc2O[C@H]1CN(C)C(=O)Nc1ccc2c(c1)OCO2	1.04 ± 0.069	
C[C@@H](NC(=O)C[C@@H]1CC[C@@H]2[C@H](COC[C@@H](O)CN2Cc2ccc(C(F)(F)F)cc2)O1)c1ccccc1	1.05 ± 0.031	

Structure (SMILES)	viability index [1]	viability index (library set: Broad Institute Blood Stage)
CN1CCCCN2[C@H](C1)[C@H](c1ccc(-c3ccc(F)cc3)cc1)[C@@H]2CO	1.0465 ± 0.00013	
COc1ccccc1-c1ccc([C@@H]2[C@@H]3CN(S(=O)(=O)c4ccc(C)cc4)C[C@H]2N3)cc1	0.91636 ± 0.00034	
Cc1cccc(-c2ccc([C@H]3[C@@H]4CN(C(=O)Nc5ccc(F)cc5)C[C@H]3N4)cc2)c1	1.048 ± 0.002	
COCC(=O)N1[C@@H]2c3ccc(-c4ccncc4)c(=O)n3C[C@@H]2[C@@H](CO)[C@@H]1C(=O)Nc1ccccc1	1.089 ± 0.0081	
Cc1cccc(S(=O)(=O)N[C@@H]2CC[C@@H](CCNC(=O)Nc3cc(F)ccc3F)O[C@H]2CO)c1	1.1 ± 0.039	
C[C@@H]1CN([C@@H](C)CO)C(=O)CCCn2nncc2CO[C@@H]1CN(C)Cc1ccc2cccnc2c1	1.01 ± 0.064	
CCC(=O)N1C[C@H](C)[C@H](OC)CN(C)C(=O)c2cc(NC(=O)Nc3ccc(Cl)cc3)ccc2OC[C@H]1C	1.05 ± 0.052	
O=C(C[C@@H]1C=C[C@H](NC(=O)Cc2cccnc2)[C@@H](CO)O1)NCc1ccc2c(c1)OCO2	1.13 ± 0.067	
N#Cc1ccc(-c2ccc([C@H]3[C@@H]4CN(C(=O)c5cccnc5)C[C@H]3N4)cc2)cc1	1.15 ± 0.046	
O=C(c1ccc(F)cc1)N1CC(=O)N2[C@H](CO)[C@@H](c3ccc(C#CCC4CCCC4)cc3)[C@H]2C1	1.07 ± 0.025	
C[C@H](CO)N1C[C@H](C)[C@H](CN(C)Cc2cccnc2)Oc2ncc(-c3ccc(C#N)cc3)cc2C1=O	1.03 ± 0.07	
COc1ccc(C[C@H]2CCn3cc(nn3)COC[C@@H](c3ccccc3)NC2=O)cc1	1.02 ± 0.02	
C[C@H]1CN([C@@H](C)CO)C(=O)CCCn2nncc2CO[C@H]1CN(C)Cc1cccc(C(F)(F)F)c1	1.029 ± 0.0053	
COc1ccc(CN2C[C@H](O)COC[C@H]3O[C@H](CC(=O)N(C)C)CC[C@@H]32)cc1	1.14 ± 0.016	
CO[C@H]1CN(C)C(=O)c2cc(NC(=O)CC(F)(F)F)ccc2OC[C@H](C)N(CC2CC2)C[C@@H]1C	1 ± 0.031	
Cc1noc(C)c1C(=O)N(C)C[C@H]1OCc2ccccc2-c2ccccc2C(=O)N([C@@H](C)CO)C[C@@H]1C	1.01 ± 0.065	
O=C(C[C@@H]1CC[C@H]2[C@@H](COC[C@H](O)CN2C(=O)Cc2ccccc2)O1)NC1Cc2ccccc2C1	1.02 ± 0.092	
C[C@H]1CN([C@@H](C)CO)C(=O)c2ccccc2-c2ccccc2CO[C@@H]1CN(C)C(=O)[C@H]1CCCN1C	0.952 ± 0.11	
O=S(=O)(NC[C@@H]1[C@H](c2ccccc2)[C@H](CO)N1CC1CC1)c1ccccc1	1.03 ± 0.049	
CO[C@@H](CN(C)S(=O)(=O)c1ccc(F)cc1)[C@@H](C)CN(Cc1ccccc1Cl)[C@@H](C)CO	0.947 ± 0.085	
O=C(C[C@H]1CC[C@@H]2[C@H](COC[C@H](O)CN2C(=O)c2ccc3c(c2)OCO3)O1)NC1CCC1	1.07 ± 0.0047	
COc1ccc2c3c([nH]c2c1)[C@@H](CO)NC[C@]31CCN(CC1)C(=O)C1CCOCC1	0.913 ± 0.043	
